Source: PubChem BioAssay AID1347055 (National Center for Advancing Translational Sciences (NCATS), 2019)
Out of some 54,000 compounds screened, about 120 (0.22%) were called active. The shares of active, inactive and inconclusive entries below differ from those in the screen. Calls follow the shape of the dose curve; as a rule, active = well fitted inhibition curve with a large enough effect; inconclusive = small, poorly fitted or top-dose-only effect, or effect the other way; inactive = flat fitted curve, though single readings scatter. No potency is given beside an inconclusive call; the fits are too rough.

Target: Fumarate hydratase, mitochondrial (Homo sapiens) (UniProt P07954)
Chain of UniProt P07954 (P07954 whole entry, looked up): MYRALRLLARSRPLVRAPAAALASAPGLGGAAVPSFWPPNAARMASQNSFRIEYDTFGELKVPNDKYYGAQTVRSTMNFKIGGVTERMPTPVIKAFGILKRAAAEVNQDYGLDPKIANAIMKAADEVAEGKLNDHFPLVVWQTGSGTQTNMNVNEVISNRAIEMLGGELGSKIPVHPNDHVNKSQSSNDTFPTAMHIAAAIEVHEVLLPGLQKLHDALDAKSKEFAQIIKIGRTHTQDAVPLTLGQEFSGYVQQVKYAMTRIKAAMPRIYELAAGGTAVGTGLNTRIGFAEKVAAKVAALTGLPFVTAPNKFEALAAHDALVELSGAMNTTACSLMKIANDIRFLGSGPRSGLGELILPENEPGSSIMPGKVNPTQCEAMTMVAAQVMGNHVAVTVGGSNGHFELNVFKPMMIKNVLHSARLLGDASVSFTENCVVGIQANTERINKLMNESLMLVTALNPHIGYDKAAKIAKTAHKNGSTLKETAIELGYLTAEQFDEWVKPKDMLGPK
Test: Identification of activators of human fumarate hydratase by quantitative high-throughput screening; also: the screen sought activators but most active calls are inhibition curves; nearly all actives have a fitted effect of over 45% in size
Conditions: FH coupled MDH/diaphorase resazurin fluorescence, 15 min; activity change, negative = inhibition: at 79.9 µM (top of the series)
% is scaled to controls: 0 for no effect and ±100 for the full control effect; potency is read from the fitted curve at half-maximal effect; tags tell the direction and shape of the fitted curve.

Row | Compound | Potency | activity change, negative = inhibition
1 | CCCCCn1cc2c(c1-c1ccc(Br)cc1)c(=O)n(C)c(=O)n2C | inconclusive [activator, single point] | 
2 | CCCCN(CC)c1nc(C)nc2c1c(C)cn2-c1c(C)cc(C)cc1C | inactive | 
3 | O=C(NCCc1ccccc1)c1ccc(Cn2c(SCc3cccc(F)c3)nc3cccnc32)cc1 | inconclusive [inhibitor, partial curve, poor fit] | 
4 | Fc1ccc(C(NCCc2ccc(Cl)cc2)c2nnc(-c3ccccc3)o2)c(Cl)c1 (stereo unspecified) | inconclusive [inhibitor, partial curve] | 
5 | O=C(CCC1N=C2c3ccccc3N=C(SCc3ccc(Cl)cc3)N2C1=O)NCCc1ccccc1 (stereo unspecified) | inconclusive [inhibitor, partial curve, poor fit] | 
6 | CCOC(=O)c1ccc(NC(=O)/C(C#N)=C/c2ccc(OC)cc2)cc1 |  | inactive: -18.5%
7 | CCCN(CCC)C(=O)Cn1c(=O)n(-c2ccccc2)c(=O)c2c3c(sc21)CCCC3 | inconclusive [inhibitor, partial curve, poor fit] | 
8 | COc1ccc2c(c1)CN(C(=O)CCN1CCC(Cc3ccccc3)CC1)CCS2 | inconclusive [activator, partial curve] | 
9 | Cc1nc(-c2ccc(Cl)cc2)sc1CCNC(=O)Cc1ccc(F)cc1 |  | inactive: -4.87%
10 | Cc1ccc(-n2cc(-c3ccccc3)nc2S(=O)(=O)CC(=O)Nc2ccc(F)cc2)cc1 | inconclusive [inhibitor, partial curve, poor fit] | 
11 | Cn1c(=O)oc2cc(S(=O)(=O)NC(Cc3ccccc3)C(=O)NCc3ccc(F)cc3)ccc21 (stereo unspecified) |  | inactive: 8.71%
12 | CCCSc1ccc2nc(NC(=O)OC)[nH]c2c1 |  | inactive: -0% [at 53.3 µM]
13 | Cc1ccc(O)c(NC(=O)c2ccc(Br)c(S(=O)(=O)N3CCCCC3)c2)c1 | inconclusive [inhibitor, partial curve, poor fit] | 
14 | COc1ccc(C(=O)N(CCC(C)C)Cc2nc(C)c(C)n2Cc2ccccc2C)c(OC)c1 |  | inactive: -4.16%
15 | Cc1csc2nc(COC(=O)c3ccccc3NC(=O)COc3ccccc3F)cc(=O)n12 | inconclusive [inhibitor, partial curve, poor fit] | 
16 | CCOc1ccc(CCNC(=O)CCc2c(C)nc3c(-c4ccccc4)c(C)nn3c2C)cc1OCC |  | inactive: 0.203%
17 | Cc1nc(Nc2ccc(Cl)cc2)cc(-c2ccccc2)n1 | inconclusive [inhibitor, partial curve] | 
18 | CCN1CCN(c2oc(-c3ccc(COc4ccc(C)cc4)o3)nc2C#N)CC1 | inconclusive [inhibitor, partial curve, poor fit] | 
19 | Cc1c(C(=O)Nc2cccc(C(F)(F)F)c2)sc2nc3n(c(=O)c12)CCCC3 |  | inactive: -11%
20 | CC1=C(C(=O)Nc2ccc(C)cc2C)C(C(C)C)n2nc(SCc3ccccc3Cl)nc2N1 (stereo unspecified) |  | inactive: -0.917%
21 | COc1cc(C2C(C(=O)OCC(C)C)=C(C)N=C3SCCC(=O)N32)ccc1OCc1ccccc1 (stereo unspecified) | inconclusive [inhibitor, single point] | 

Row | Compound | Potency | activity change, negative = inhibition
22 | Cc1ccc(-c2nc3c4ccccc4[nH]c(=O)n3n2)cc1 | inconclusive [inhibitor, single point] | 
23 | O=C(Cn1c(=O)oc2cc(S(=O)(=O)N3CCCCCC3)ccc21)NCc1ccccc1Cl |  | inactive: -13.5%
24 | CCOC(=O)c1nc(Nc2ccc(C(C)=O)cc2)c2ccccc2n1 | inconclusive [activator, single point] | 
25 | Cn1ccc2cc3c(cc21)CCN3C(=O)Nc1cccnc1 | inconclusive [inhibitor, partial curve, poor fit] | 
26 | CC(C)C1C(OC(=O)/C=C/c2ccccc2)CC2(C)OC2CCC2(C)OC2C1O (stereo unspecified) |  | inactive: -2.63% [at 53.3 µM]
27 | Cc1ccc(NS(=O)(=O)c2ccc3[nH]c4c(c3c2)CCCCCC4)cc1C | inconclusive [inhibitor, single point] | 
28 | CCOc1ccc(-c2cc(CCCC(=O)NCCc3ccc(SC)cc3)no2)cc1 |  | inactive: 1.68%
29 | Cc1cccc(C=NNc2cc(N3CCOCC3)nc(OCCc3ccccn3)n2)c1 |  | inactive: 5.98% [at 53.3 µM]
30 | COc1ccc(NC(=O)c2ccco2)cc1NC(=O)c1cc(Br)ccc1Cl | inconclusive [inhibitor, partial curve, poor fit] | 
31 | CC(=O)N1CCc2c(sc3c2c(=O)n(Cc2ccccc2)c(=O)n3Cc2ccccc2Cl)C1 | inconclusive [inhibitor, partial curve, poor fit] | 
32 | Cc1ccc(-c2nnc(Nc3ccc(O)cc3)c3ccccc23)cc1S(=O)(=O)NC(C)(C)CO | inconclusive [inhibitor, partial curve] | 
33 | COc1ccc2nc(NC(=O)c3nc(S(=O)(=O)Cc4ccc(C)cc4)ncc3Cl)sc2c1 |  | inactive: -7.64%
34 | CCOc1ccccc1NC(=O)CN(c1cc(C)cc(C)c1)S(=O)(=O)c1c(C)nn(C)c1C | inconclusive [inhibitor, single point] | 
35 | COC(=O)C1=CO[C@@H](O[C@@H]2O[C@H](CO)[C@@H](O)[C@H](O)[C@H]2O)[C@H]2[C@@H]1C=C[C@]21C=C([C@H](C)OC(=O)/C=C/c2ccc(O[C@@H]3O[C@H](CO)[C@@H](O)[C@H](O)[C@H]3O)cc2)C(=O)O1 |  | inactive: 0.414% [at 20.6 µM]
36 | CCOC(=O)c1scc(-c2ccc(C)cc2)c1S(=O)(=O)N1CCN(c2ccccc2)CC1 | inconclusive [inhibitor, partial curve, poor fit] | 
37 | CCN(CC)CCNc1ccc2ncn3c4ccc(O)cc4c(=O)c1c23 | inconclusive [inhibitor, single point] | 
38 | COc1cc2nc(-c3cc(F)ccc3O)nc(N[C@@H]3CNC[C@@H]3C(C)(C)O)c2cc1OC |  | inactive: -24.5% [at 53.3 µM]
39 | CCOC(=O)NNc1ccc(N(CC)CC(C)O)nn1 (stereo unspecified) |  | inactive: -8.42% [at 53.3 µM]
40 | CCc1cccc(NC(=O)Cn2c(=O)n(Cc3ccccc3)c(=O)c3c(C)c(C(=O)N(C)C)sc32)c1 | inconclusive [inhibitor, partial curve, poor fit] | 
41 | O=C(Cn1c2ncccc2c(=O)n1-c1ccccc1)Nc1cccc(C(F)(F)F)c1 | inconclusive [inhibitor, single point] | 
42 | CCOc1ccc(-c2nc(CSCC(=O)NCCc3ccccc3)c(C)o2)cc1 | inconclusive [inhibitor, partial curve, poor fit] | 

Row | Compound | Potency | activity change, negative = inhibition
43 | Cc1ccc(Cn2c3ccccc3c3cnn(CC(=O)N4CCCCCC4)c(=O)c32)cc1 | inconclusive [inhibitor, single point] | 
44 | C=CC(C)(C)c1[nH]c2ccccc2c1C[C@@H]1NC(=O)[C@H](C)NC1=O |  | inactive: -5.05% [at 53.3 µM]
45 | O=C(CCc1ccccc1)c1c(O)c([C@@H]2O[C@H](CO)[C@@H](O)[C@H](O)[C@H]2O)c(O)c([C@@H]2O[C@H](CO)[C@@H](O)[C@H](O)[C@H]2O)c1O |  | inactive: 1.36% [at 20.6 µM]
46 | COc1cccc(-c2cc(C(=O)Nc3ccc(F)cc3)[nH]n2)c1 | inconclusive [inhibitor, partial curve, poor fit] | 
47 | COC(=O)c1c(NC(=O)COc2ccc(OC)cc2)sc2c1CCC(C)C2 (stereo unspecified) | inconclusive [inhibitor, partial curve] | 
48 | CC(C)(O)c1ccccc1CC[C@@H](SCC1(CC(=O)O)CC1)c1cccc(/C=C/c2ccc3ccc(Cl)cc3n2)c1 | inconclusive [inhibitor, partial curve] | 
49 | COc1nnc(-c2ccc(N3CCCCC3)c(NC(=O)c3ccc(Cl)cc3)c2)c2ccccc12 |  | inactive: 1.48%
50 | CCOC(=O)C1CCCN(C(=O)C2CCN(S(=O)(=O)c3c(C)noc3/C=C/c3ccc(C)cc3)CC2)C1 (stereo unspecified) | inconclusive [inhibitor, partial curve, poor fit] | 
51 | O=C(O)c1ccccc1NC(=O)N1c2ccccc2Sc2ccccc21 | inconclusive [inhibitor, partial curve] | 
52 | COc1cccc2sc(N(Cc3cccnc3)C(=O)c3ccc(S(=O)(=O)N(C)C)cc3)nc12 |  | inconclusive: -30.2% [inhibitor]
53 | COc1ccc2c(c1)c1c(c(=O)n(-c3ccc(C)cc3)c(=O)n1CC(=O)Nc1cc(C)ccc1C)n2C |  | inactive: 1.8%
54 | Cc1nc2c(C(=O)NCCC(C)C)cnn2c(C)c1Cc1c(F)cccc1Cl | inconclusive [inhibitor, partial curve, poor fit] | 
55 | CC(=O)N1CCCc2cc(S(=O)(=O)N3CCC(N(C)C(C)C)CC3)ccc21 | inconclusive [inhibitor, partial curve, poor fit] | 
56 | O=C(Nc1cccc(C(F)(F)F)c1)c1ccc(F)c(S(=O)(=O)N2CCc3ccccc3C2)c1 | inconclusive [inhibitor, partial curve, poor fit] | 
57 | CCCCOc1ccc(C(=O)NCCc2csc(-c3ccc(OC)cc3)n2)cc1 | inconclusive [inhibitor, single point] | 
58 | Cc1ccc(NS(=O)(=O)c2ccc3[nH]c4c(c3c2)CCCCC4)cc1 | inconclusive [inhibitor, single point] | 
59 | NS(=O)(=O)c1ccc(-n2nc(C(F)(F)F)cc2-c2ccc(Cl)cc2)cc1 | inconclusive [inhibitor, single point] | 
60 | COc1ccc(NC(=O)Cn2cc(C(=O)c3cccs3)c3ccccc32)cc1 | inconclusive [inhibitor, partial curve, poor fit] | 
61 | CCc1ccc(NC(=O)C2CCN(S(=O)(=O)c3c(C)noc3/C=C\c3ccc(OC)cc3)CC2)cc1 | inconclusive [inhibitor, single point] | 
